The labels stand for the following.
T1: RBFOX1 RRM (Homo sapiens, UniProt Q9NWB1 109-208)
T1 sequence: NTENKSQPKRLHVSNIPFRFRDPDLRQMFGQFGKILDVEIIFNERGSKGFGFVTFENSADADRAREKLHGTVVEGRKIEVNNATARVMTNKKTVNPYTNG

B1: GUGUGCA (DNA:RNA)
RNA: GGGAGACCGGAAUUCAGAUUGUCCGUGUGCAUUAAAUCCCGUCGUAGCCACCA
DNA 1: CAATCTGAATTCCGGTCTCCC
DNA 2: TGGTGGCTACGACGGGATT
B2: UUUGUGC (DNA:RNA)
RNA: B1 RNA with G25U, G27U, U28G, G29U, C30G, A31C
DNA 1: CAATCTGAATTCCGGTCTCCC
DNA 2: TGGTGGCTACGACGGGATT
B3: GAUGAAA (DNA:RNA)
RNA: B1 RNA with U26A, G27U, U28G, G29A, C30A
DNA 1: CAATCTGAATTCCGGTCTCCC
DNA 2: TGGTGGCTACGACGGGATT
B4: GAAUUUG (DNA:RNA)
RNA: B1 RNA with U26A, G27A, G29U, C30U, A31G
DNA 1: CAATCTGAATTCCGGTCTCCC
DNA 2: TGGTGGCTACGACGGGATT
B5: GCCGCUU (DNA:RNA)
RNA: B1 RNA with U26C, G27C, U28G, G29C, C30U, A31U
DNA 1: CAATCTGAATTCCGGTCTCCC
DNA 2: TGGTGGCTACGACGGGATT
B6: GCUUCGC (DNA:RNA)
RNA: B1 RNA with U26C, G27U, G29C, C30G, A31C
DNA 1: CAATCTGAATTCCGGTCTCCC
DNA 2: TGGTGGCTACGACGGGATT
B7: UCGCCUC (DNA:RNA)
RNA: B1 RNA with G25U, U26C, U28C, G29C, C30U, A31C
DNA 1: CAATCTGAATTCCGGTCTCCC
DNA 2: TGGTGGCTACGACGGGATT
B8: AUACUAA (DNA:RNA)
RNA: B1 RNA with G25A, G27A, U28C, G29U, C30A
DNA 1: CAATCTGAATTCCGGTCTCCC
DNA 2: TGGTGGCTACGACGGGATT
B9: UGAUGGU (DNA:RNA)
RNA: B1 RNA with G25U, U26G, G27A, C30G, A31U
DNA 1: CAATCTGAATTCCGGTCTCCC
DNA 2: TGGTGGCTACGACGGGATT
B10: GGUUAGC (DNA:RNA)
RNA: B1 RNA with U26G, G27U, G29A, C30G, A31C
DNA 1: CAATCTGAATTCCGGTCTCCC
DNA 2: TGGTGGCTACGACGGGATT
B11: AUAGGAG (DNA:RNA)
RNA: B1 RNA with G25A, G27A, U28G, C30A, A31G
DNA 1: CAATCTGAATTCCGGTCTCCC
DNA 2: TGGTGGCTACGACGGGATT
B12: GUGAUGC (DNA:RNA)
RNA: B1 RNA with U28A, G29U, C30G, A31C
DNA 1: CAATCTGAATTCCGGTCTCCC
DNA 2: TGGTGGCTACGACGGGATT
B13: GUUUUUA (DNA:RNA)
RNA: B1 RNA with G27U, G29U, C30U
DNA 1: CAATCTGAATTCCGGTCTCCC
DNA 2: TGGTGGCTACGACGGGATT
B14: AAGGAUA (DNA:RNA)
RNA: B1 RNA with G25A, U26A, U28G, G29A, C30U
DNA 1: CAATCTGAATTCCGGTCTCCC
DNA 2: TGGTGGCTACGACGGGATT
B15: CGUGACG (DNA:RNA)
RNA: B1 RNA with G25C, U26G, G27U, U28G, G29A, A31G
DNA 1: CAATCTGAATTCCGGTCTCCC
DNA 2: TGGTGGCTACGACGGGATT
B16: GUAGUCA (DNA:RNA)
RNA: B1 RNA with G27A, U28G, G29U
DNA 1: CAATCTGAATTCCGGTCTCCC
DNA 2: TGGTGGCTACGACGGGATT
B17: UGUCCCG (DNA:RNA)
RNA: B1 RNA with G25U, U26G, G27U, U28C, G29C, A31G
DNA 1: CAATCTGAATTCCGGTCTCCC
DNA 2: TGGTGGCTACGACGGGATT
B18: UCAGAUG (DNA:RNA)
RNA: GGGAGACCGGAAUUCAGAUUGUCCUCAGAUGUUAAAUCCCGUCGUAGCCACCA
DNA 1: CAATCTGAATTCCGGTCTCCC
DNA 2: TGGTGGCTACGACGGGATT
B19: UAGAUCA (DNA:RNA)
RNA: B1 RNA with G25U, U26A, U28A, G29U
DNA 1: CAATCTGAATTCCGGTCTCCC
DNA 2: TGGTGGCTACGACGGGATT
B20: UUGUACC (DNA:RNA)
RNA: B1 RNA with G25U, G29A, A31C
DNA 1: CAATCTGAATTCCGGTCTCCC
DNA 2: TGGTGGCTACGACGGGATT
B21: ACUCACA (DNA:RNA)
RNA: B1 RNA with G25A, U26C, G27U, U28C, G29A
DNA 1: CAATCTGAATTCCGGTCTCCC
DNA 2: TGGTGGCTACGACGGGATT
B22: GUGGUUA (DNA:RNA)
RNA: B1 RNA with U28G, G29U, C30U
DNA 1: CAATCTGAATTCCGGTCTCCC
DNA 2: TGGTGGCTACGACGGGATT
B23: AAUGUAU (DNA:RNA)
RNA: B18 RNA with U25A, C26A, A27U, A29U, U30A, G31U
DNA 1: CAATCTGAATTCCGGTCTCCC
DNA 2: TGGTGGCTACGACGGGATT
B24: UAUCGCU (DNA:RNA)
RNA: B1 RNA with G25U, U26A, G27U, U28C, A31U
DNA 1: CAATCTGAATTCCGGTCTCCC
DNA 2: TGGTGGCTACGACGGGATT
B25: GACCUUC (DNA:RNA)
RNA: B1 RNA with U26A, G27C, U28C, G29U, C30U, A31C
DNA 1: CAATCTGAATTCCGGTCTCCC
DNA 2: TGGTGGCTACGACGGGATT
B26: ACUAUUC (DNA:RNA)
RNA: B18 RNA with U25A, A27U, G28A, A29U, G31C
DNA 1: CAATCTGAATTCCGGTCTCCC
DNA 2: TGGTGGCTACGACGGGATT
B27: UAUGACU (DNA:RNA)
RNA: B18 RNA with C26A, A27U, U30C, G31U
DNA 1: CAATCTGAATTCCGGTCTCCC
DNA 2: TGGTGGCTACGACGGGATT
B28: CCACUAC (DNA:RNA)
RNA: B18 RNA with U25C, G28C, A29U, U30A, G31C
DNA 1: CAATCTGAATTCCGGTCTCCC
DNA 2: TGGTGGCTACGACGGGATT
B29: GUUUUCU (DNA:RNA)
RNA: B1 RNA with G27U, G29U, A31U
DNA 1: CAATCTGAATTCCGGTCTCCC
DNA 2: TGGTGGCTACGACGGGATT
B30: AUCUUGC (DNA:RNA)
RNA: B1 RNA with G25A, G27C, G29U, C30G, A31C
DNA 1: CAATCTGAATTCCGGTCTCCC
DNA 2: TGGTGGCTACGACGGGATT
B31: CUGAUAC (DNA:RNA)
RNA: B1 RNA with G25C, U28A, G29U, C30A, A31C
DNA 1: CAATCTGAATTCCGGTCTCCC
DNA 2: TGGTGGCTACGACGGGATT

Positions count from the first letter of the chain named. The list shows a part of the results.

This experiment deals with T1, RBFOX1 RRM. The experiment in a line: EMSA; HiTS-Eq, 1 nM pool, 10 min; buffer printed only for the single-RNA assays: 10 mM Tris pH 7.5, 150 mM NaCl, 3.4 mM EDTA, 0.001% NP-40, 30 C. The settings on record: tags: His6 N-terminal (pET28a); label: 5' 32P. The essentials:
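These values rest on relative association constants, computed from read-count changes of each RNA species versus the control reaction and normalised to the cognate motif. Reads came from free RNA recovered by 8% native PAGE after purified RbFox RRM (wild type or mutant) at increasing concentrations was equilibrated for 10 min in 50 µL with 1 nM of a 5′-radiolabelled pool with 7 randomized nucleotides and DNA-annealed flanks.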
In general terms: A gel shift assay detects complexes by their altered migration in electrophoresis.
B1: the binding signal was 0.0243 KA relative to UGCAUGU.

For B2, the binding signal was 0.0313 KA relative to UGCAUGU.

As to B3, the binding signal is 0.013 KA relative to UGCAUGU.

As to B4, the binding signal was 0.0172 KA relative to UGCAUGU.

Turning to B5, the binding signal was 0.0151 KA relative to UGCAUGU.

In the case of B6, the binding signal is 0.0214 KA relative to UGCAUGU.

Turning to B7, the binding signal was 0.0134 KA relative to UGCAUGU.

As to B8, the binding signal is 0.00144 KA relative to UGCAUGU.

As for B9, the binding signal is 0.0198 KA relative to UGCAUGU.

B10: the binding signal was 0.00911 KA relative to UGCAUGU.

B11: the binding signal is 0.00387 KA relative to UGCAUGU.

With B12, the binding signal is 0.0147 KA relative to UGCAUGU.

In the case of B13, the binding signal was 0.011 KA relative to UGCAUGU.

Regarding B14, the binding signal is 0.00452 KA relative to UGCAUGU.

On to B15, for which the binding signal was 0.00883 KA relative to UGCAUGU.

For B16, the binding signal was 0.00813 KA relative to UGCAUGU.

On to B17, for which the binding signal is 0.0122 KA relative to UGCAUGU.

With B18, the binding signal is 0.0141 KA relative to UGCAUGU.

Consider B19, for which the binding signal was 0.0114 KA relative to UGCAUGU.

In the case of B20, the binding signal was 0.00863 KA relative to UGCAUGU.

As for B21, the binding signal was 0.000868 KA relative to UGCAUGU.

Turning to B22, the binding signal was 0.0127 KA relative to UGCAUGU.

With B23, the binding signal was 0.00349 KA relative to UGCAUGU.

Consider B24, for which the binding signal was 0.0147 KA relative to UGCAUGU.

Consider B25, for which the binding signal was 0.0101 KA relative to UGCAUGU.

On to B26, for which the binding signal was 0.00183 KA relative to UGCAUGU.

As to B27, the binding signal is 0.00939 KA relative to UGCAUGU.

In the case of B28, the binding signal is 0.000125 KA relative to UGCAUGU.

B29: the binding signal was 0.02 KA relative to UGCAUGU.

B30: the binding signal was 0.0138 KA relative to UGCAUGU.

In the case of B31, the binding signal was 0.00951 KA relative to UGCAUGU.

For the origin of these results see paper PMC9911399, “Two distinct binding modes provide the RNA-binding protein RbFox with extraordinary sequence specificity”.
